The supplement of paper PMC4166925
± gives the standard deviation of the averaged measurements. Over roughly 33,000 sequences, “E-score (dimensionless, -0.5 to 0.5)” has its median near -0.046; the highest 2% begin near 0.36. Some of the results follow.

Tested on: T1, SpTbr T-box DNA-binding domain (GST fusion)
T1 sequence: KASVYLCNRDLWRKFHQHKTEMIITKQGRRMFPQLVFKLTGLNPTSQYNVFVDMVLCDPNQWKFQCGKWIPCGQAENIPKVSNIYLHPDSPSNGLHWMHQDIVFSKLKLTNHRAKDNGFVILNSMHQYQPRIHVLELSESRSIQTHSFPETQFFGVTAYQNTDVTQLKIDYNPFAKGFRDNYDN
Experiment: PBM E-score of 8-mer (E-score (dimensionless, -0.5 to 0.5)); Tbr is Tbrain of the sea star Patiria miniata (Pm) or the sea urchin Strongylocentrotus purpuratus (Sp); higher = stronger binding preference; most listed sequences are background and not binding sites
Conditions: the construct has about 5 more residues each side
Summary of the method: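 Expression of GST-fused Tbr T-box DNA-binding domains, each holding the full T-box plus roughly five flanking residues, was carried out in BL21 E. coli at 20 °C, with purification by glutathione affinity chromatography. Universal Agilent arrays made double-stranded by primer extension were incubated with the protein at 200 nM in PBS (pH 7.5), then scanned and quantified. All ungapped 8-mers were scored from probe intensities, and each received an enrichment E-score from the Universal PBM Analysis Suite, averaged over duplicate arrays.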

| Sequence | PBM E-score of 8-mer |
| --- | --- |
| AGCGCAAG | -0.0521 ± 0.018 |
| CTCCGTCA | -0.00211 ± 0.014 |
| AGTGGGTC | -0.0827 ± 0.061 |
| AATCTGCT | -0.12 ± 0.082 |
| AGGTTGCC | -0.121 ± 0.097 |
| AGGCACCT | 0.148 ± 0.033 |
| CCTGGCCC | -0.154 ± 0.035 |
| CTCAATCA | 0.0409 ± 0.039 |
| CTAAGTAA | -0.175 ± 0.011 |
| ACGTAACG | -0.0714 ± 0.023 |
| GACCGTGA | 0.123 ± 0.029 |
| AAAGCAAA | 0.00628 ± 0.091 |
| CACCCATC | 0.0856 ± 0.027 |
| CTGTGGCC | -0.164 ± 0.0082 |
| AGCTGTTC | 0.029 ± 0.014 |
| AAACAGGT | 0.0685 ± 0.011 |
| CAATTAAG | -0.0947 ± 0.083 |
| TCAACTCA | -0.0438 ± 0.019 |
| GAGCCAAA | -0.0573 ± 0.016 |
| AATCAGGT | 0.132 ± 0.01 |
| AAGTTCAA | 0.0375 ± 0.055 |
| AATCTCCC | -0.157 ± 0.07 |

| Sequence | PBM E-score of 8-mer |
| --- | --- |
| AGCTACCA | -0.0691 ± 0.0051 |
| CTATAAAG | -0.0624 ± 0.0033 |
| GATTTGCC | -0.0903 ± 0.013 |
| CCCTTTGA | -0.0585 ± 0.032 |
| GCCGCACA | 0.0689 ± 0.027 |
| ATATAACC | -0.0722 ± 0.02 |
| AAACCTAG | 0.0536 ± 0.035 |
| GCAGCCCA | -0.122 ± 0.052 |
| AGTTTGGA | -0.256 ± 0.0047 |
| AAAATATA | -0.312 ± 0.0098 |
| ATGCAAGG | -0.147 ± 0.024 |
| GCCAGGAC | -0.0301 ± 0.041 |
| TAGGGACA | -0.221 ± 0.04 |
| GGAAGAAA | -0.173 ± 0.027 |
| AAGAAGGG | -0.235 ± 0.083 |
| GAAGCGCA | 0.0142 ± 0.0009 |
| GCCTCTAC | 0.049 ± 0.06 |
| CCAGCAGC | -0.198 ± 0.01 |
| AGGGTCAA | -0.246 ± 0.028 |
| ATAAGTTA | -0.179 ± 0.029 |
| GGTAATAC | -0.178 ± 0.027 |
| AGCCCTTA | -0.188 ± 0.019 |

| Sequence | PBM E-score of 8-mer |
| --- | --- |
| GTCGTAAC | 0.12 ± 0.1 |
| ACCGATAA | 0.107 ± 0.022 |
| ACTAGCAG | -0.0848 ± 0.034 |
| CTGTAGTC | -0.274 ± 0.033 |
| AGCTCTAC | -0.137 ± 0.0066 |
| ATACTAAG | -0.152 ± 0.015 |
| CCTTGCCA | -0.0463 ± 0.044 |
| GAATTCCC | 0.0038 ± 0.051 |
| CCGAGAAA | 0.0462 ± 0.0023 |
| ATGCTGCC | -0.2795 ± 0.0026 |
| CTCAGTCC | -0.198 ± 0.026 |
| CAACCATA | -0.145 ± 0.0046 |
| CGCGTGCA | 0.162 ± 0.046 |
| CGAATCAA | 0.0996 ± 0.026 |
| GCGTAAGC | 0.142 ± 0.023 |
| CCGTGTAG | -0.0283 ± 0.025 |
| CAGCTATA | -0.0219 ± 0.0047 |
| ATGCATAG | -0.197 ± 0.038 |
| CGCTAAGA | 0.198 ± 0.039 |
| GGGAGATA | -0.0554 ± 0.076 |
| CCGATCGC | 0.16 ± 0.16 |
| AGAGAATC | 0.0192 ± 0.038 |

| Sequence | PBM E-score of 8-mer |
| --- | --- |
| CGAACACA | 0.248 ± 0.048 |
| TCATCGAA | -0.138 ± 0.11 |
| AGTATGAT | -0.0275 ± 0.072 |
| CGCGGTTA | 0.0483 ± 0.083 |
| ACGTTTTG | 0.0314 ± 0.068 |
| GGCGAGCA | -0.0508 ± 0.079 |
| GTCTAAAA | 0.0084 ± 0.061 |
| CCGGTGAG | 0.089 ± 0.024 |
| GGATTGCA | -0.101 ± 0.0032 |
| AAAGGTGA | 0.316 ± 0.0022 |
| AGAAAAGG | -0.0361 ± 0.097 |
| TACATACA | -0.23353 ± 6.4e-05 |
| GATGATAC | -0.136 ± 0.012 |
| ATAAACGG | -0.106 ± 0.039 |
| GCTAATAA | -0.103 ± 0.039 |
| GCCCGCGC | 0.00019 ± 0.13 |
| AATCGTCA | 0.195 ± 0.01 |
| CAGGCAGG | -0.128 ± 0.06 |
| CACCCCTG | 0.269 ± 0.009 |
| ACCGTAGG | -0.113 ± 0.038 |
| AATCGTGA | 0.211 ± 0.027 |
| CGCGTTAA | 0.229 ± 0.061 |

| Sequence | PBM E-score of 8-mer |
| --- | --- |
| CGGCGACG | -0.0181 ± 0.067 |
| CCTATCCG | -0.253 ± 0.0099 |
| CCTGTACG | -0.15 ± 0.0064 |
| AGTGTCGG | 0.36 ± 0.015 |
| CACGTCGG | 0.256 ± 0.076 |
| CAATCGGA | -0.221 ± 0.015 |
| ACGTCAGT | 0.129 ± 0.053 |
| GACGTATA | -0.0768 ± 0.028 |
| CACGCCAA | 0.278 ± 0.0052 |
| ATAAAAGC | -0.0319 ± 0.08 |
| AGTGGTTC | -0.0892 ± 0.026 |
| TTACCAAA | 0.0706 ± 0.014 |
| GATGAGGC | -0.112 ± 0.027 |
| CAGCTGTA | -0.0719 ± 0.024 |
| CACCGGTA | 0.119 ± 0.07 |
| TATTCGAA | -0.0307 ± 0.088 |
| AATGTACT | -0.0787 ± 0.011 |
| CTAGTCCC | -0.138 ± 0.041 |
| CAACAGAC | -0.0833 ± 0.036 |
| TGACGGCA | 0.181 ± 0.031 |
| CAGAAAAC | -0.141 ± 0.052 |
